# Hit rate of the full screen: of about 45,000 compounds, about 200 (0.44%) were called active. Roughly 7% stayed inconclusive and do not appear here. Calls follow the shape of the dose curve; as a rule, active = well fitted activation curve with a large enough effect; inconclusive = small, poorly fitted or top-dose-only effect; inactive = no such curve, though single readings can be large or run the other way. Some of the results follow.
# Experiment: qHTS of TDP-43 Inhibitors: NCGC Sytravon Library Screen; also: 0% is about no effect; nearly all actives have a fitted effect of over 55% in size
# Conditions: yeast TDP-43 toxicity rescue, BacTiter-Glo growth, 24 h; series mostly up to 46.1 µM; growth rescue (activation): at the top concentration
# How it was run: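 TDP-43-expressing yeast, pregrown in raffinose, seeded at OD600 0.02 in galactose medium with compound for 24 hr at 30 deg C. Growth read by BacTiter-Glo luminescence, so rescue of toxicity appears as activation.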
row,SMILES,growth rescue (activation)
1,COc1ccc(-n2cnnc2SCC(=O)Nc2cc(C)on2)cc1,inactive: 15.2%
2,Cc1cccc(N(Cc2cc3ccccc3[nH]c2=O)S(=O)(=O)c2ccccc2)c1,inactive: -12.4%
3,CCCCCCNC(=O)C(=O)NCCc1ccc(Cl)cc1,inactive: 11.9%
4,Cc1cc(-n2cnnn2)cc(C)c1S(=O)(=O)N(C)c1ccccc1,inactive: 24.3%
5,Cc1cc(C)c(C(=O)O)c(Cl)n1,inactive: 12.1%
6,COc1ccc(NC(=O)C2CCN(c3nc(C)nc4c3CCC4)CC2)cc1,inactive: -5.77%
7,CCOc1ccc(/C=N/NC(=O)c2[nH]c3ccc(C)cc3c2C)cc1,inactive: 7.32%
8,Cc1ccc(OCCNC(=O)c2ccc3ccccc3n2)cc1,inactive: -42.6%
9,CS(=O)(=O)C1=NN2C(=N)/C(=C\c3ccc(OCCOc4ccccc4)cc3)C(=O)N=C2S1,inactive: 11.2%
10,COc1ccc(CNC(=O)c2[nH]c(C)c(C(C)=O)c2C)cc1,inactive: 4.52%
11,CCCNC(=O)C1(C)CCCN(Cc2cccs2)C1 (centres undefined),inactive: 1.74%
12,COc1ccc(C(=O)COC(=O)c2c(C)noc2C)cc1Cl,inactive: -1.21%
13,CCOC(=O)c1sc2ncn(/N=C/c3ccc(O)cc3)c(=O)c2c1C,inactive: 9.54%
14,COc1ccc(NC(=O)c2coc(C)c2)cc1,inactive: 7.44%
15,COc1ccccc1CNC(=O)COc1ccc2c(c1)CCC2,inactive: 31.7%
16,COc1ccc([N+](=O)[O-])cc1NC(=O)CCN1CCN(c2ccccc2OC)CC1,inactive: -6.89%
17,O=C(COC(=O)c1ccc(F)c(S(=O)(=O)N2CCOCC2)c1)Nc1ccc2c(c1)OCO2,inactive: 7.09%
18,O=C(Nc1nc2nccc(-c3ccccc3)n2n1)c1ccc(F)cc1,inactive: -2.25%
19,O=C(N=Nc1c(O)[nH]c2ccccc12)c1ccc(CN2CCOCC2)cc1,inactive: 1.7%
20,COc1ccc(NS(=O)(=O)c2ccc(C(=O)NCC3(N4CCOCC4)CCCCC3)cc2)cc1,inactive: -6.65%
21,COc1ccc(-c2nnnn2C)cc1S(=O)(=O)Nc1ccc(C)cc1C,inactive: 14.1%
22,CN1CCN(/N=C2/C(=O)Nc3ccc([N+](=O)[O-])cc32)CC1,inactive: -20.7%
23,CC(C)CNC(=O)COC(=O)c1ccc2c(c1)C(=O)N(Cc1ccco1)C2=O,inactive: -16.8%
24,CC(Sc1nnc(CNC(=O)c2ccccc2F)n1C)C(=O)Nc1nccs1 (centres undefined),inactive: -17.2%
25,COc1ccc(-c2csc(NC(=O)CSc3nc4ccccc4c(=O)[nH]3)n2)cc1,inactive: 11%
26,Cc1ccc(S(=O)(=O)N2CCOCC2)cc1C(=O)NCCCn1ccnc1,inactive: -4.31%
27,CC(=O)c1ccc(OCCCC(=O)Nc2cccc(S(=O)(=O)N3CCOCC3)c2)cc1,inactive: 3.77%

row,SMILES,growth rescue (activation)
1,CCc1ccc(NC(=O)Cn2c(=O)oc3cc(S(=O)(=O)N4CCCCCC4)ccc32)cc1,inactive: 6.46%
2,CCOc1ccccc1NC(=O)CN(c1ccc(OC)cc1OC)S(=O)(=O)c1ccccc1[N+](=O)[O-],inactive: 17.2%
3,CC1=C(C(=O)OC2CCCCC2)C(c2ccc(F)cc2)NC(=O)N1 (centres undefined),inactive: 11.7%
4,COc1ccccc1/C=C(\C#N)C(=O)Nc1ccc(S(N)(=O)=O)cc1,inactive: -22.4%
5,O=C(NCCNC(=O)c1cc(F)cc(F)c1)c1cc(F)cc(F)c1,inactive: -3.28%
6,COc1cc(/C=N/n2c(-c3ccc4c(c3)NC(=O)CO4)csc2=Nc2cccc(C)c2)ccc1O,inactive: 28.4%
7,CCNC(=O)C1(C)CCCN1C(=O)c1ccc(C#N)cc1 (centres undefined),inactive: -5.1%
8,O=C(c1ccccc1)c1cc(Cl)ccc1N1C(=O)C=CC1=O,inactive: -94.2%
9,COC(=O)c1cn(-c2ccccc2)c(=O)c2ccccc12,inactive: 13.3%
10,CCCC(C(=O)NC(C)(C)C)N(CC1CCCO1)C(=O)CNS(=O)(=O)c1ccc(F)cc1 (centres undefined),inactive: 0.0036%
11,CCOc1ccc(S(=O)(=O)NNS(=O)(=O)c2ccc(C)cc2C)cc1,inactive: 13.5%
12,CCC(=O)OCC(=O)Nc1ccc(OC)cc1[N+](=O)[O-],inactive: -4.47%
13,CC(C)CCNC(=O)CCn1c(=S)oc2ccccc21,inactive: 9.03%
14,CCOC(=O)c1cc(NC(=O)N(C)C2CCCCC2)c(C)nc1C,inactive: 6.37%
15,COc1ccc(NC(=O)Cc2c(C)n(C(=O)c3ccc(Cl)cc3)c3ccc(OC)cc23)cc1,inactive: 3.33%
16,CC(C)CC(=O)Nc1ccc(C(=O)NN2C(=O)c3ccccc3C2=O)cc1,inactive: 10.8%
17,C=CCc1c(O)c(CC)cc2c(C)cc(=O)oc12,inactive: 29.7%
18,COC(=O)c1ccc(NC(=O)CCn2cccc2)cc1,inactive: 31.4%
19,Cc1ccc(C(=O)NCCSC(C)(C)C)cc1[N+](=O)[O-],inactive: -25%
20,COc1ccc(C(=O)NNC2=C(C(=O)C(F)(F)F)CCC2)cc1,inactive: 14.9%
21,NC(=O)C1(N2CCCCC2)CCN(C(=O)Nc2ccc(C(F)(F)F)cc2)CC1,inactive: -4.19%
22,Cc1cc(Oc2ccc(C)c(Cl)c2)nc(SCC(=O)c2ccccc2)n1,inactive: 16.8%
23,CCSc1nnc(NC(=O)c2ccc3nc[nH]c3c2)s1,inactive: 2.38%
24,COc1ccc(OC)c(N(CC(=O)NN=C2CCN(C)CC2)S(=O)(=O)c2ccccc2)c1,inactive: 1.2%
25,CC(=O)Nc1ccc(C(=O)N2CCCC(c3cc(C(=O)Nc4ccccc4)no3)C2)cc1 (centres undefined),inactive: -14.7%
26,O=C1CSC(=S)N1/N=C/c1ccc2c(c1)OCCO2,inactive: -10.4%
27,COCCn1c(N)c(Sc2ccccc2)c(=O)[nH]c1=O,inactive: -15.5%

# Source: PubChem BioAssay AID1347073 (National Center for Advancing Translational Sciences (NCATS), 2019)
